Article PMC4336329 (PLoS ONE, 2015)
The whole screen tested about 310,000 compounds, of which about 2,200 (0.71%) showed an effect of 50% or more. Effects have a minus sign here. The list shows a part of the results.

Target: human ether-à-go-go-related gene (hERG) potassium channel (human, UniProt Q12809)
Test: primary screen, population patch clamp on CHO cells stably expressing hERG

Chain of human ether-à-go-go-related gene (hERG) potassium channel (Q12809 whole entry, looked up): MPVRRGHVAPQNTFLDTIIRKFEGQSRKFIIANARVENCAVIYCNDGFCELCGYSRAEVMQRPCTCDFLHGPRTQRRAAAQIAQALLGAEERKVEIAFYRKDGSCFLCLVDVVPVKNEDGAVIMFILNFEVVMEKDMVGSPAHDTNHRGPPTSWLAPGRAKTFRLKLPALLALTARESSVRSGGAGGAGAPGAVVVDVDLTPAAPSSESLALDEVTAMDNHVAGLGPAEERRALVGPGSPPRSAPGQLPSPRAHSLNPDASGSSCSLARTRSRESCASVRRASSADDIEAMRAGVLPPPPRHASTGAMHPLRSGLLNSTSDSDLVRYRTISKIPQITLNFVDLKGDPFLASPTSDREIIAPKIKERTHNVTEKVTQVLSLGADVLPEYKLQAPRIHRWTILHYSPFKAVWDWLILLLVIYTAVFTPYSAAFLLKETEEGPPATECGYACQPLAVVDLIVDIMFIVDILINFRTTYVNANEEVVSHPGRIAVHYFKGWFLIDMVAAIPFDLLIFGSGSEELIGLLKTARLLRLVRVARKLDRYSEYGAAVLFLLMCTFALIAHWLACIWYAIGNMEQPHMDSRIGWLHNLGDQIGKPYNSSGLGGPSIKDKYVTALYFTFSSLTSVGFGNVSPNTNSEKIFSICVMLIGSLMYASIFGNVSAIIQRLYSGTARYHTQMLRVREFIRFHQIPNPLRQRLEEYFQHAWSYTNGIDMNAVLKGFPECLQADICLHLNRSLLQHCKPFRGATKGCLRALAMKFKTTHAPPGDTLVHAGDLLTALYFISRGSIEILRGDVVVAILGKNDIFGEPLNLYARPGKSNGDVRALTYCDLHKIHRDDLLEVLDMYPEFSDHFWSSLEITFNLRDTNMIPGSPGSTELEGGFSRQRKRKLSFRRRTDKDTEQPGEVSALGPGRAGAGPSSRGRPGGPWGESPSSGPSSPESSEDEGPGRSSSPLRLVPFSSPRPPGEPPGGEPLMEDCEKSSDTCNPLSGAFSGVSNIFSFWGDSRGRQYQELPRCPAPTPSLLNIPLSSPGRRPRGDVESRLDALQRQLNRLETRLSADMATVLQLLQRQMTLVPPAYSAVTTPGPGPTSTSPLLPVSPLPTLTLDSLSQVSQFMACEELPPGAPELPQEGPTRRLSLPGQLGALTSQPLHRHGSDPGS

| SMILES | hERG current change (%, negative = inhibition) at 1uM |
| --- | --- |
| Cc1ccc(CN(Cc2ccccc2)C(=S)NCC(=O)N2CCC3(CC2)OCCO3)o1 | 6.68% |
| COc1ccc(CCNC(=O)CCCn2c(=O)[nH]c3cc(OC)c(OC)cc3c2=O)cc1OC | 1.1% |
| COc1ccc(Sc2nnc(Cc3ccccc3)c3ccccc23)cc1 | -8.91% |
| COC(=O)C1=C(c2cccc(OC)c2OC)C[C@@H]2CC[C@H]1N2C(=O)N1CCCCC1 | 12.2% |
| O=C(CN1C(=O)c2cccc3cccc1c23)NCc1ccccn1 | 15.5% |
| Cn1ncc(Br)c1C(=O)NC1CCCC1 | 11.1% |
| COc1cc(/C=C(/NC(=O)c2ccccc2)C(=O)Nc2ccc(O)cc2)c([N+](=O)[O-])cc1OC | 11.2% |
| COc1cc(Nc2ncnc(N)n2)cc(OC)c1OC | 11.2% |
| CC(=O)OCC(=O)Nc1ccc(C(C)=O)cc1 | 0.594% |
| Cc1cccc(NC(=O)C2SC(=Nc3c(C)cccc3C)C(C(=O)N3CCOCC3)=C2N)c1 (stereo not drawn) | 12.8% |
| CCNC(=O)c1cccc(NC(=O)C2CC(=O)N(CCc3ccccc3)C2)c1 (stereo not drawn) | 6.43% |
| COc1ccc(C(=O)NC(=S)Nc2cccc(S(=O)(=O)N3CCOCC3)c2)cc1 | 9.36% |
| Cc1sc2ncn(CC(=O)NCC3COc4ccccc4O3)c(=O)c2c1S(=O)(=O)N1CCCCC1 (stereo not drawn) | 9.92% |
| Cc1cccc(NC2=NCC(=O)N2CCc2ccccc2)c1 | -5.54% |
| O=C(O)/C=C/C(=O)N(Cc1ccc2c(c1)OCO2)C1CC(=O)N(CCc2ccccc2)C1=O (stereo not drawn) | 14.6% |
| COc1ccc(CC(=O)NNC(=O)CSc2nnc(Cc3ccc(OC)cc3)n2-c2ccccc2)cc1 | 1.61% |
| CCOC(=O)c1c(C)[nH]c(C(=O)OCC(=O)Nc2ccc(OCC)cc2)c1C | -1.52% |
| CCN(CC)c1ccc(N=Nc2ncn[nH]2)cc1 | 9.65% |
| CCc1ccc(NC(=O)C2CCCCC2C(=O)O)cc1 (stereo not drawn) | 11.5% |
| COc1cccc(-c2nnc(SCC(=O)NC3CCS(=O)(=O)C3)n2C)c1 (stereo not drawn) | 2.08% |
| c1coc(-c2ccnc(-n3cccc3)n2)c1 | 10.1% |

| SMILES | hERG current change (%, negative = inhibition) at 1uM |
| --- | --- |
| Cc1nnc(SCC2=C(C(=O)O)N3C(=O)C(NC(=O)c4cc(F)c(F)cc4Cl)C3SC2)s1 (stereo not drawn) | -2.66% |
| COC(=O)[C@]1(C)N[C@H](c2ccc(-c3ccccc3)cc2)[C@@H]2C(=O)N(C)C(=O)[C@@H]21.O=C(O)C(F)(F)F | 15.8% |
| O=C(CC1(O)C(=O)N(CN2CCOCC2)c2ccccc21)c1ccccc1 (stereo not drawn) | -38.6% |
| CCOc1ccc(S(=O)(=O)NCc2ccc3c(c2)OCO3)cc1C(=O)O | 11.1% |
| CCN(CC)S(=O)(=O)c1ccc(C(=O)Nc2c3c(nn2C(C)(C)C)CS(=O)(=O)C3)cc1 | 5.04% |
| O=C(/C=C/c1ccco1)NCC1COc2ccccc2O1 (stereo not drawn) | 10.4% |
| COc1ccc(NC(=O)[C@H](C)NC(=O)C2CCN(S(=O)(=O)c3ccc(OC)cc3)CC2)cc1 | 9.33% |
| CCCCNC(=O)c1ccccc1NC(=O)CCSc1ccccc1 | 6.03% |
| Cc1oc(-c2cccc(C(F)(F)F)c2)nc1CN1CCN(c2ccccn2)CC1 | 6.15% |
| CC1(c2ccccc2)NC(=O)N(CC(=O)Nc2ccc(S(=O)(=O)Nc3ncccn3)cc2)C1=O (stereo not drawn) | 14.2% |
| CCN1C(=O)[C@H]2[C@@H](c3ccc(OC)cc3)N3C(=O)CN(CCOC)C(=O)[C@@]3(Cc3ccccc3)[C@H]2C1=O | 0.249% |
| Cc1ccc(C2NC(C(=O)O)CS2)cc1 (stereo not drawn) | 9.28% |
| Cc1ccc(-c2noc(CN3CCOCC3)n2)cc1 | 17.1% |
| O=C(Nc1nnc(SCc2ccccc2)s1)C1=COCCO1 | -4.07% |
| COc1cc(OC)c2ccc(=O)oc2c1C(CCN1CCCCC1)c1ccc(N(C)C)cc1 (stereo not drawn) | 10.1% |
| CCc1ccccc1NC(=O)c1ccc2nc(N3CCOCC3)sc2c1 | 2.16% |
| Cc1oc(-c2ccc3c(c2)OCCO3)cc1C(=O)NC(CCC(=O)O)C(=O)O (stereo not drawn) | 9.12% |
| COc1ccccc1C(=O)Nc1ccc(S(=O)(=O)N2CCc3ccccc32)cc1 | -36.9% |
| O=C1CN(C(=O)C2CCC(=O)N(CCc3ccc(Cl)cc3)C2)CCN1 (stereo not drawn) | 15.3% |
| CC1=CC2=NC(=O)/C(=C/c3coc4ccc(Cl)cc4c3=O)C(=N)N2O1 | 12.7% |
| Cc1ccccc1N1CCN(CCN2C(=O)CC(=C3c4ccccc4-c4ccccc43)C2=O)CC1 | 9.78% |

| SMILES | hERG current change (%, negative = inhibition) at 1uM |
| --- | --- |
| COc1ccc(N(C(=O)c2cnccn2)C(C(=O)NC2CCCCC2)c2ccccc2)cc1 (stereo not drawn) | 5.65% |
| O=C(COc1ccc2c3c(c(=O)oc2c1)CCC3)NC1CCN(Cc2ccccc2)CC1 | -3.5% |
| CC(=O)Nc1cc2cc(NS(=O)(=O)c3ccc(C)cc3)ccc2oc1=O | 13.8% |
| O=C(CSc1ccc(-c2ccccc2)nn1)N1CCOCC1 | -10.3% |
| C/C(=N\NC(=O)CNc1cccc(Cl)c1C)C1CC1 | 19.7% |
| N#Cc1ccc(C(=O)Nc2cc(S(=O)(=O)N3CCCC3)ccc2OCC(F)(F)F)cc1 | -2.09% |
| Cc1c(N=Nc2c(O)n(-c3ccc(Br)cc3)c(=O)[nH]c2=O)c(=O)n(-c2ccccc2)n1C | 13.8% |
| Nc1ccc(C(=O)N2CCN(S(=O)(=O)c3ccc(Cl)s3)CC2)cc1[N+](=O)[O-] | 4.82% |
| O=C(NC1CCCCCC1)c1ccc(CN2CCOCC2)cc1 | 16.5% |
| CCCNC(=O)NC(=O)COc1c(F)c(F)cc(F)c1F | -3.36% |
| O=C(CCN1C(=O)C2C3C=CC(C3)C2C1=O)NCCN1CCCc2ccccc21 (stereo not drawn) | -4.28% |
| O=C(CCCCCNC(=O)c1ccccc1Cl)N/N=C/c1ccco1 | 14.8% |
| Cc1ccc(S(=O)(=O)NCC(c2ccco2)N2CCOCC2)cc1 (stereo not drawn) | 0.699% |
| Cc1onc(-c2c(Cl)cccc2Cl)c1C(=O)n1nnc2ccccc21 | 7.22% |
| COc1ccc(OC)c(NC(=O)CN(C)S(=O)(=O)c2ccc(Cl)cc2)c1 | 6.95% |
| CCOc1ccc(C2C(C#N)=C(N)N(c3sc4c(c3C#N)CCCC4)C3=C2C(=O)CCC3)cc1 (stereo not drawn) | 3.62% |
| NC(=O)c1ccccc1N/C=C1\CCCCC1=O | 10.8% |
| COCc1c(C(=O)OCC(=O)c2c(N)n(CC(C)C)c(=O)n(C)c2=O)oc2ccccc12 | 5.53% |
| CSc1ccc(S(=O)(=O)NCC(=O)OCC(=O)N2CCCCC2C)cc1[N+](=O)[O-] (stereo not drawn) | 18.9% |
| Cc1ccc(S(=O)(=O)NCCC(=O)Nc2ccncc2)cc1C | -3.57% |
| CCN(CC)S(=O)(=O)c1cccc(NC(=O)COc2ccc(C#N)cc2OC)c1 | -6.54% |

| SMILES | hERG current change (%, negative = inhibition) at 1uM |
| --- | --- |
| Cc1ccc2nc(SCC(=O)c3c[nH]c4ccccc34)[nH]c2c1 | 24% |
| COc1cccc(C(=O)OC2CCCN(C)C2)c1.Cl (stereo not drawn) | -0.829% |
| COc1ccc(C(C(=O)NC(C)(C)C)N(C(=O)CNC(=O)c2cccs2)c2ccc(NC(C)=O)cc2)cc1OC (stereo not drawn) | 12.2% |
| Cc1cc(N2C(=O)[C@@H]3[C@H](C2=O)[C@@H]2C[C@H]3C(Br)C2Br)no1 (stereo partly drawn) | 13.2% |
| CCOc1ccc(NC(=O)C23CC4CC(C2)CC(c2ccccc2)(C4)C3)cc1 | 11% |
| Cc1nc(NC(=O)c2ccccc2O)sc1C | 8.06% |
| COc1cccc(-c2nnc(SCC(=O)Nc3cc(C)ccc3OC)n2N)c1 | 7.6% |
| Cc1ccccc1-c1ccc(C=Nc2c(C)n(C)n(-c3ccccc3)c2=O)o1 | 11.8% |
| Cc1nc(SCC(=O)N2CCC(C(N)=O)CC2)n[nH]1 | 16% |
| CC(=O)Nc1ccc(S(=O)(=O)N(C)CC(=O)OCC(=O)c2ccc3c(c2)NC(=O)CO3)cc1 | 9.86% |
| Cc1c(-c2c(C#N)c(N)nc3c2CCCCCC3)cnn1C | 10.9% |
| COc1ccc(NC(=O)C2CCN(C(=O)c3cccs3)CC2)cc1 | 0.544% |
| COC(=O)c1nnn(-c2nonc2N)c1CN1CCCC1 | 7.01% |
| CCc1ccc(NC(=O)c2cnc3n(c2=O)CCS3)cc1 | -0.518% |
| COC(=O)/C=C1\N/C(=N\c2nc(C)cc(C)n2)N(c2ccc(C)c(C)c2)C1=O | -3.59% |
| COc1ccc2c(c1)/C(=N/N1C(=O)c3ccccc3C1=O)C(=O)N2 | 11.4% |
| O=C1CN(C(=O)c2ccc(Br)o2)C(c2ccccc2)c2cc(Cl)ccc2N1 (stereo not drawn) | 5.24% |
| O=C(CCC(=O)Nc1ccccc1)NNC(=O)CCc1ccccc1 | 13.6% |
| Cc1ccc(C(=O)Nc2ncc(C)s2)s1 | 13.2% |
| COc1ccccc1N1CCN(C2CCCN(C(=O)CCc3ccccn3)C2)CC1 (stereo not drawn) | 6.71% |
| COc1ccc(C(=O)OCC(=O)Nc2nc3c(F)c(F)c(F)cc3s2)cc1OC | 7.17% |
